Screen size: about 310,000 compounds; about 14,000 (4.5%) showed an effect of 50% or more. Effects have a minus sign here. Some of the results follow.
target: human ether-à-go-go-related gene (hERG) potassium channel (human, UniProt Q12809); test: primary screen, population patch clamp on CHO cells stably expressing hERG
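Further: peak tail current of the secondary pulse compared with the same well before compound.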

Sequence of human ether-à-go-go-related gene (hERG) potassium channel (Q12809 whole entry, looked up): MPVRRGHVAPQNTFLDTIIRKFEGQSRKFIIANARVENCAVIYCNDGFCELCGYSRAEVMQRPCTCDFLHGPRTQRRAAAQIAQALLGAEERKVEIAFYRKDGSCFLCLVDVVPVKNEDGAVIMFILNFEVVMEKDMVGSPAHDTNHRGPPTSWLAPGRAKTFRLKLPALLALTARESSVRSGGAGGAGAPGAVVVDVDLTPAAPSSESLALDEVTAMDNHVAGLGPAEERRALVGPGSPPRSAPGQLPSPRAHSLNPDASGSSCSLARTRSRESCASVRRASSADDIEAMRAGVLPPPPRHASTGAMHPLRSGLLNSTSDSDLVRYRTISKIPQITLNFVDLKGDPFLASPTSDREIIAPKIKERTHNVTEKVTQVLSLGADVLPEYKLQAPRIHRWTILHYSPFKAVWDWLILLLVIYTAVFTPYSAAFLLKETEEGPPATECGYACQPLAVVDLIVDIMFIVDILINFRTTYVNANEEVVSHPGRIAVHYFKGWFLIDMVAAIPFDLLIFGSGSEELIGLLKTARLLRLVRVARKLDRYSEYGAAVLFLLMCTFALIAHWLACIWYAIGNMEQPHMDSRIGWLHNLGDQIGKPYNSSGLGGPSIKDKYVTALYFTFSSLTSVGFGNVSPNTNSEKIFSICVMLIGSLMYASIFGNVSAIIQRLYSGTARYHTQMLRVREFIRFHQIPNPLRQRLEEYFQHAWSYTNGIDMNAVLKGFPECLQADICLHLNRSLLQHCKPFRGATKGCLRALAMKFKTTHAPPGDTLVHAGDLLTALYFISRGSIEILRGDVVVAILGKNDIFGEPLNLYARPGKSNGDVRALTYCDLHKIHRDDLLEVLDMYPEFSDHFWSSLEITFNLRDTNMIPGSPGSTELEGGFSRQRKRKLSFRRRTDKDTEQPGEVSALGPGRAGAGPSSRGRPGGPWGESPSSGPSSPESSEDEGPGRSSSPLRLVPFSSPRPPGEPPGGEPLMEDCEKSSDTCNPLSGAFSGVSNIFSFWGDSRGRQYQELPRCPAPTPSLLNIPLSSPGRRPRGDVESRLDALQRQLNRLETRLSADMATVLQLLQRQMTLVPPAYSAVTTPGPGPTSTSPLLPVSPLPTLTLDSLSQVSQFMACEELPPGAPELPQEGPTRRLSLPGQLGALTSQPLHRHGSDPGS

Point of comparison: COCCN(CCOC)c1ncnc2c1cnn2-c1ccc(Cl)cc1, “hERG current change (%, negative = inhibition) at 10uM” value -27.7%. Against it:
- CC1=CC(C)(C)NC(=S)N1NC(=O)c1ccccc1Cl — higher, 0.742%
- COC(=O)C1=CN(C(C)C)C=C(C(=O)OC)C1c1cc(Br)c(OC)c(OC)c1 — higher, -12.7%
- COc1ccc(/C=C/C(=O)c2cccc(-n3cnnn3)c2)cc1O — higher, 13.5%
- Clc1cc(Cl)c2nc(N3CCCCC3)sc2c1 — higher, 8.96%
- CCn1c(SCC(=O)c2ccc(F)cc2)nnc1-c1ccoc1C — higher, -10.4%
- COc1nc(Nc2ccc(C(C)C)cc2)nc(OC)n1 — higher, -20%
- CCc1nc(SCC(=O)Nc2cc(OC)ccc2OC)c2c(C)c(C)sc2n1 — higher, 3.63%
- O=C(/C=C/c1ccccc1)NC1CCS(=O)(=O)C1 (centres unmarked) — higher, 18.1%
- CCC(C)c1c(O)nc(SCC(=O)N2CCCCCC2)[nH]c1=O (centres unmarked) — higher, 26.4%
- CC(=O)O[C@H](COc1c2ccoc2cc2oc(=O)ccc12)C(C)(C)O.O — higher, -6.92%
- Cc1ccsc1/C=N/NC(=O)CC(=O)NCC(C)C — higher, 21.2%
- CCOC(=O)N1CCC(NC(=O)Cn2cc3c(n2)CCCCC3)CC1 — higher, 9.89%
- C/C(=N\NC(N)=S)c1ccncc1 — higher, 8.91%
- Cc1nc2ccccc2c(=O)n1-c1ccc(Cl)cc1[N+](=O)[O-] — higher, 10.1%
- CC(C)CCN1CCN(CCCn2cccn2)CC1CCO (centres unmarked) — higher, -6.72%
- CCC(CC)C(=O)Nc1nnc(CCc2ccccc2)s1 — higher, -1.88%
- CNc1nnc(Sc2ncccc2[N+](=O)[O-])s1 — higher, 18.5%
- COc1ccc2nc3oc(C(=O)N4CCN(c5cccc(C(F)(F)F)c5)CC4)cc3cc2c1 — higher, 12.5%
- O=C(NCc1cccnc1)/C(=C/c1ccc(Cl)cc1)NC(=O)c1ccccc1 — lower, -68.5%
- COC(=O)C1=C(N)Oc2cc(C)[nH]c(=O)c2C1c1ccccc1OC (centres unmarked) — higher, 9.48%
- OC/C(Br)=C(\Br)CO — higher, 12.1%
- COc1ccc(N2CCN(CCCNC(=O)C(=O)c3c(C)[nH]c4ccccc34)CC2)cc1 — lower, -53.3%
- COc1cccc(OC)c1C(=O)Nc1cccc(-c2ccc3nncn3n2)c1 — higher, 5.17%
- CN(C)S(=O)(=O)c1ccc(N2CCCC2)c(C(=O)Nc2ccc(C(N)=O)cc2)c1 — lower, -30.9%
- O=C(Cn1ccc(C(F)(F)F)n1)N=Nc1c(O)[nH]c2ccccc12 — higher, 1.25%
- CSCCC(NC(=O)c1ccccc1Cl)C(=O)N(C)CC(=O)Nc1ccc(N2CCOCC2)cc1 (centres unmarked) — higher, 5.2%
- CCOC(=O)c1sc2nc(CSc3ccccc3)nc(N3CCCN(C)CC3)c2c1C.O=C(O)C(=O)O — lower, -70%
- COc1ccc(-c2coc3cc4oc(=O)cc(C)c4cc23)cc1F — higher, 1.52%
- Nn1c(SCC(=O)Nc2ccccc2)nnc1-c1cccnc1 — higher, -0.632%
- c1ccc(C(c2ccccc2)c2noc(CN3CCC(c4ccncc4)CC3)n2)cc1 — lower, -32.7%
- C=CCO/N=C(/C)c1c(O)c(CC)c(-c2ccccc2)n(-c2ccccc2)c1=O — higher, -8.37%
- Cc1ccc(CNC(=O)C2CCN(C(=O)Nc3ccccc3)CC2)cc1 — higher, -16.3%
- CCn1c2ccccc2c2cc(NC(=O)C(C)Oc3ccc(OC)cc3)ccc21 (centres unmarked) — higher, 19.9%
- Cc1c(CCC(=O)N2CCC[C@H]2C(=O)O)c(=O)oc2c(C)c3oc4c(c3cc12)CCCC4 — higher, 35.3%
- CCN(CC)C(=O)CCSc1nnc(-c2ccncc2)o1 — higher, -2.01%
- O=C(Nc1ccnn1C1CCN(Cc2ccc(CO)o2)CC1)c1ccc2c(c1)OCO2 — higher, 5.11%
- O=C(CSCc1ccccc1Br)N/N=C/c1ccc(OCC(=O)N2CCCCC2)cc1 — higher, -15.9%
- CC(=O)c1cccc(NC(=O)c2cc3ccccn3n2)c1 — higher, -14.6%
- O=C(CN1CCCCC1)Nc1ccccc1-c1ccccc1 — higher, -9.07%
- CCOc1ccccc1NC(=O)CN(C)S(=O)(=O)c1ccc2[nH]c(=O)oc2c1 — higher, -5.16%
- CC(=O)C1=C(O)C(=O)N(c2ccc(S(N)(=O)=O)cc2)C1c1ccc([N+](=O)[O-])cc1 (centres unmarked) — higher, 7.52%
- COCCNc1ccnc2c(Cl)cccc12 — lower, -81.9%
- Cc1nn(CC(=O)NC2(C#N)CCCCC2)c(C)c1[N+](=O)[O-] — higher, 3.09%
- CCC(=O)Nc1ccc2c(c1)ncn2-c1ccccc1 — higher, 4.49%
- CC(=O)c1ccc(S(=O)(=O)N(Cc2cc3cc4c(cc3[nH]c2=O)OCCO4)CC2CCCO2)cc1 (centres unmarked) — higher, 8.84%
- Cc1cc(C)c2[nH]c(=O)c(CN(Cc3ccc4c(c3)OCO4)Cc3nnnn3C3CCCC3)cc2c1 — higher, -4.47%
- CN(C)S(=O)(=O)c1ccc(N2C(=O)CC2(/C=C/c2ccccc2)C(=O)NC2CCCC2)cc1 (centres unmarked) — higher, 19.8%
- Cc1cc2occ(CC(=O)N(C)CC(=O)Nc3ccccc3Br)c2cc1C — higher, 12.8%
- COCCNC(=S)NC(=O)CC12CC3CC(CC(C3)C1)C2 — higher, 2.18%
- CCN(C(=O)CSc1ncn[nH]1)c1c(N)n(Cc2ccccc2)c(=O)[nH]c1=O — higher, 17.7%
- O=C(NCc1ccc2c(c1)OCO2)c1ccc(Cl)c(S(=O)(=O)N2CCOCC2)c1 — higher, -18.8%
- Cn1c(C(=O)N2CCN(c3ccccc3)CC2)cc2cc(Cl)ccc21 — higher, 19.1%
- Cc1ccc(S(=O)(=O)N(C)C)cc1NC(=O)CN1CCN(Cc2ccccc2)CC1.Cl — higher, -24.8%
- Nc1nc(SCC(=O)Nc2cccc(S(=O)(=O)N3CCCCCC3)c2)n[nH]1 — higher, -3.93%
- OC1CCCN(c2ncnc3c2nnn3Cc2c(F)cccc2Cl)C1 (centres unmarked) — higher, 0.989%
- Cc1ccc(S(=O)(=O)NCC(=O)NCC(=O)NCCc2ccccc2F)cc1C — higher, -2.01%
- Cl.Fc1ccccc1/C=N/N1CCN(Cc2ccccc2Cl)CC1 — higher, 21.3%
- CN(C)C(=O)c1cccn(Cc2cccc(C(F)(F)F)c2)c1=O — higher, 6.99%
- Cc1ccc(S(=O)(=O)N2CC(=O)Nc3ccccc32)c(C)c1NS(C)(=O)=O — higher, 6.92%
- O=C(O)COc1ccc(/C=C/c2nc(-c3ccccc3O)n[nH]2)cc1 — higher, 24.2%
- COc1ccc2[nH]c(CN3CCN(CCC(C)C)C(CCO)C3)c(C)c2c1 (centres unmarked) — higher, 23.5%
- COc1cc2cc(C(=O)O)n(C)c2c(OC)c1OC — higher, 9.35%
- NC(=O)c1cc([N+](=O)[O-])ccc1NCc1ccc(O)cc1 — higher, -19.9%
- CCNC(=S)N/N=C/c1cc(C)ccc1C — higher, 21.4%
- CCc1ccc(N2C(=O)CC(N(CC3CCCO3)C(=O)/C=C/C(=O)O)C2=O)cc1 (centres unmarked) — higher, 24.2%
- CC1=NCCc2c1[nH]c1cc(O)ccc21.Cl.O — higher, -9.58%
- Cc1cc(C(=O)N2CCN(c3ccccn3)CC2)no1 — higher, -11.4%
- Nc1nc2n(n1)C(c1ccco1)CC(c1ccc(Cl)cc1Cl)N2 (centres unmarked) — higher, -25%
- CCCCCCN1CCN(c2ccc(Cl)cc2)CC1 — lower, -66.9%
- Cc1cc(C)c(C#N)c(SCCS(=O)(=O)Cc2ccccc2)n1 — higher, 15%
- Cc1ccc(SCCNC(=O)CN2C(=O)c3ccccc3S2(=O)=O)cc1 — lower, -35.7%
- C(=N\Nc1ccccc1)/c1ccc(N2CCOCC2)cc1 — higher, -0.949%
- CC(=O)Nc1ccc(S(=O)(=O)Nc2cccc(-n3cnnn3)c2)cc1 — higher, 21.5%
- COc1cccc(CNC(=O)CC2C(=O)NCCN2CCCc2ccccc2)c1 (centres unmarked) — higher, -6.17%
- CCCCn1c(=O)c(C=Nc2cc([N+](=O)[O-])ccc2OC)c(O)n(CCCCl)c1=O — lower, -34.9%
- CCc1nnc(NC(=O)c2n[nH]c(=O)c3ccccc23)s1 — higher, 14.3%
- COc1ccccc1NC(=S)N(Cc1ccccc1)Cc1cccs1 — higher, 14.9%
- CCOP(=O)(OCC)C(O)c1cc(OC)c(OC)c(OC)c1 (centres unmarked) — higher, -0.612%
- Cn1c(N)c(C(=O)COC(=O)CCCOc2ccc(Cl)cc2Cl)c(=O)n(C)c1=O — higher, -12.2%
- COCCNc1nc(-c2cc(-c3ccc(Cl)cc3)on2)cc(C(C)C)n1 — higher, 14.5%
- Cc1cc(C)c(S(=O)(=O)N2CCN(C(=O)N(C)C)CC2)c(C)c1 — higher, 7.06%
- CCOc1cc2[nH]c(=S)n(CCCN(CC)CC)c(=O)c2cc1OCC — lower, -29.6%
- O=C(CSc1nc(-c2ccccc2)c(-c2ccccc2)[nH]1)NCCN1C(=O)CSC1=O — lower, -33.2%
- Cc1ccc(F)cc1NC(=O)C1CC(=O)N(CCc2ccccc2)C1 (centres unmarked) — higher, -8%
- O=C(O)C1CCCCC1C(=O)NC1C2CC3CC(C2)CC1C3 (centres unmarked) — higher, 22.1%
- Cn1cccc1C(C#N)c1cccc(F)c1C#N (centres unmarked) — higher, 6.07%
- O=C1CC(=C(c2ccccc2)c2ccccc2)C(=O)N1CCCN1CCN(c2cccc(Cl)c2)CC1 — higher, 1.35%
- COc1cccc(/C=C2/C(=O)NN(c3ccccc3)C2=O)c1 — higher, 15.8%

Reference: paper PMC4336329 (PLoS ONE, 2015)
